“And” between values parts separate entries of the source, which are not always exact repeats. Equal values may be shown once. Further values from the same series stand in other lists. Inconclusive results and toxic doses are left out.
System: P388 leukemia ip, CD2F1 mice, survival T/C
Experiment: NCI In Vivo Anticancer Drug Screen. Data for tumor model P388 Leukemia (intraperitoneal) in CD2F1 (CDF1) mice
Conditions: endpoint: median survival time, higher = longer survival
Description: The antitumor activity of compounds was measured in mice bearing transplantable tumors. Survival or tumor size were measured and the results are expressed as the measurement made in the treated group (T) divided by the measurement made in the vehicle treated control group (C). The tumor model used in this assay is P388 Leukemia (intraperitoneal) in CD2F1 (CDF1) mice

## O=P1(N(CCCl)CCCl)NCCCO1 (stereo not drawn)
dose: 73.0 mg/kg/injection, schedule: Q04DX003 (ip), vehicle: saline
  T/C: 527 % of control
dose: 110.0 mg/kg/injection, schedule: Q04DX003 (ip), vehicle: saline
  T/C: 460 % of control and 530 % of control
dose: 120.0 mg/kg/injection, schedule: Q04DX003 (ip), vehicle: saline
  T/C: 441 % of control
dose: 180.0 mg/kg/injection, schedule: Q01DX001 (ip), vehicle: saline
  T/C: 92 % of control
dose: 200.0 mg/kg/injection, schedule: Q01DX009 (ip), vehicle: saline
  T/C: 87 % of control
dose: 267.0 mg/kg/injection, schedule: Q01DX001 (ip), vehicle: water
  T/C: 446 % of control
dose: 320.0 mg/kg/injection, schedule: Q04DX003 (ip), vehicle: water
  T/C: 92 % of control
dose: 600.0 mg/kg/injection, schedule: Q01DX001 (ip), vehicle: water
  T/C: 66 % of control
